Results: the supplement of paper PMC4967469
By IC50 is meant the dose at which the fit gives 50% viability; a limit (>, <) means that the fit lies beyond the doses tested. AUC, from the same fit, is the share of area under the viability curve across the 256-fold dose range; the more sensitive the line, the further below 1. For part of these data: An inferred top dose is not printed in the source and was worked back from the curve model. For part of these data: Where an entry number is given, a second screen of the drug exists; the two often differ.

Columns and labels:
Assay in all cases: Viability of human cancer cell lines after 72 h of drug (GDSC screen)
VNLG/124 = compound: CCCC(=O)OCc1ccc(OC(=O)/C=C(C)/C=C/C=C(C)/C=C/C2=C(C)CCCC2(C)C)cc1 [VNLG/124]; conditions: top dose 5.12 µM; top dose inferred
Protocol: (§1)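 Human cancer cell lines in 384-well plates, medium with 10% serum, drug for 72 h over a 256-fold dose range (nine 2-fold or five 4-fold steps up to the top dose). Adherent lines were fixed and stained with the nucleic acid dye Syto60, suspension lines read with resazurin; signal relative to control wells, capped at 0 and 100%. One two-parameter sigmoid per drug and line, fitted in a mixed model over all curves with the slope shared within a line.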

LAQ824 = compound: O=C(/C=C/c1ccc(CN(CCO)CCc2c[nH]c3ccccc23)cc1)NO [LAQ824]; conditions: top dose 1.024 µM; top dose inferred
Protocol: as §1

BX-912 = compound: O=C(Nc1cccc(Nc2ncc(Br)c(NCCc3cnc[nH]3)n2)c1)N1CCCC1 [BX-912]; conditions: top dose 10.24 µM; top dose inferred
Protocol: as §1

Masitinib = compound: Cc1ccc(NC(=O)c2ccc(CN3CCN(C)CC3)cc2)cc1Nc1nc(-c2cccnc2)cs1 [Masitinib]; conditions: top dose 20 µM
Protocol: as §1

Bleomycin = compound: Cc1c(N)nc([C@H](CC(N)=O)NC[C@H](N)C(N)=O)nc1C(=O)N[C@H](C(=O)N[C@H](C)[C@@H](O)[C@H](C)C(=O)N[C@H](C(=O)NCCc1nc(-c2nc(C(=O)NCCC[S+](C)C)cs2)cs1)[C@@H](C)O)[C@@H](OC1OC(CO)C(O)C(O)C1OC1OC(CO)C(O)C(OC(N)=O)C1O)c1cnc[nH]1 [Bleomycin]
Protocol: as §1

OSI-930 = compound: O=C(Nc1ccc(OC(F)(F)F)cc1)c1sccc1NCc1ccnc2ccccc12 [OSI-930]; conditions: top dose 10.24 µM
Protocol: as §1

NSC-87877 = compound: O=S(=O)(O)c1ccc2cc(N=Nc3cc(S(=O)(=O)O)c4cccnc4c3O)ccc2c1 [NSC-87877]; conditions: top dose 16 µM; top dose inferred
Protocol: as §1

[1] = top dose 64 µM, screen: GDSC drug entry 190
[2] = top dose 50 µM, screen: GDSC drug entry 1378, top dose inferred

Cell Line	AUC (VNLG/124)	IC50 (VNLG/124)	AUC (LAQ824)	IC50 (LAQ824)	AUC (BX-912)	IC50 (BX-912)	AUC (Masitinib)	IC50 (Masitinib)	AUC (Bleomycin; [1])	IC50 (Bleomycin; [1])	AUC (OSI-930)	IC50 (OSI-930)	AUC (NSC-87877)	IC50 (NSC-87877)	AUC (Bleomycin; [2])	IC50 (Bleomycin; [2])
UACC-812 (breast, adherent)	0.991	> 5.12 µM	0.919	> 1.02 µM	0.991	> 10.2 µM	0.907	> 20 µM	0.924	> 64 µM	0.988	> 10.2 µM	0.989	> 16 µM	–	–
H-EMC-SS (chondrosarcoma, adherent)	0.969	> 5.12 µM	0.801	0.681 µM	0.647	1.85 µM	0.97	> 20 µM	0.811	47 µM	0.976	> 10.2 µM	0.976	> 16 µM	0.6	6.4 µM
SNU-175 (large intestine, suspension)	0.987	> 5.12 µM	–	–	0.651	1.63 µM	0.643	3.02 µM	–	–	0.984	> 10.2 µM	–	–	–	–
YMB-1-E (breast, adherent)	0.969	> 5.12 µM	–	–	0.975	> 10.2 µM	0.861	> 20 µM	–	–	0.941	> 10.2 µM	–	–	–	–
HCC-33 (small cell lung carcinoma, adherent)	0.988	> 5.12 µM	0.363	0.0266 µM	0.848	7.73 µM	0.865	18.1 µM	0.61	8.03 µM	0.973	> 10.2 µM	0.983	> 16 µM	–	–
HCC1806 (breast, adherent)	0.981	> 5.12 µM	0.556	0.0898 µM	0.958	> 10.2 µM	0.886	19 µM	0.1	< 0.25 µM	0.973	> 10.2 µM	0.876	13.7 µM	0.152	0.299 µM
COR-L303 (small cell lung carcinoma, suspension)	0.98	> 5.12 µM	–	–	0.884	> 10.2 µM	0.906	> 20 µM	–	–	0.987	> 10.2 µM	–	–	–	–
HCC1599 (breast, suspension)	0.978	> 5.12 µM	0.33	0.0199 µM	0.791	5.37 µM	0.86	> 20 µM	0.408	2.16 µM	0.928	> 10.2 µM	0.978	> 16 µM	0.61	6.54 µM
PC-3 (prostate, adherent)	0.961	> 5.12 µM	0.53	0.0786 µM	0.933	> 10.2 µM	0.9	> 20 µM	0.648	11.3 µM	0.979	> 10.2 µM	0.974	> 16 µM	0.606	6.5 µM
SU-DHL-1 (anaplastic large cell lymphoma, suspension)	0.997	> 5.12 µM	0.662	0.157 µM	0.941	9.22 µM	0.915	14.3 µM	0.406	2.37 µM	0.968	> 10.2 µM	0.992	> 16 µM	–	–
MDA-MB-157 (breast, adherent)	0.988	> 5.12 µM	0.295	0.0166 µM	0.91	> 10.2 µM	0.947	> 20 µM	0.919	> 64 µM	0.988	> 10.2 µM	0.987	> 16 µM	0.833	33.4 µM
NCI-H1299 (large cell lung carcinoma, adherent)	0.983	> 5.12 µM	–	–	0.945	> 10.2 µM	0.981	> 20 µM	0.273	0.771 µM	0.983	> 10.2 µM	–	–	0.474	2.61 µM
COR-L311 (small cell lung carcinoma, suspension)	–	–	–	–	0.508	0.672 µM	0.85	16.9 µM	–	–	0.908	> 10.2 µM	–	–	–	–
NCI-H2196 (small cell lung carcinoma, adherent)	0.98	> 5.12 µM	0.544	0.0848 µM	0.883	> 10.2 µM	0.779	8.59 µM	0.778	27.4 µM	0.968	> 10.2 µM	0.977	> 16 µM	–	–
SIG-M5 (acute myeloid leukaemia, suspension)	0.01	< 0.02 µM	0.224	0.0132 µM	0.414	0.396 µM	0.903	14.6 µM	0.231	0.861 µM	0.774	3.06 µM	0.986	> 16 µM	–	–
KP-N-YS (neuroblastoma, adherent)	0.889	> 5.12 µM	0.336	0.0208 µM	0.614	1.38 µM	0.814	12.9 µM	0.722	18.9 µM	0.922	> 10.2 µM	0.972	> 16 µM	–	–
THP-1 (acute myeloid leukaemia, suspension)	0.958	> 5.12 µM	0.523	0.0735 µM	0.856	6.99 µM	–	–	–	–	0.931	> 10.2 µM	0.989	> 16 µM	–	–
